Source: PubChem BioAssay (NCI)
“And” between values parts separate entries of the source, which are not always exact repeats. Equal entries are not always repeated.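 Step 1: Grow cells in 96-well plates. Step 2: Expose to compound for 48 hours at 5 concentrations. Step 3: Interpolate endpoints linearly; if unreached, use highest concentration. At the GI50, growth is halved. TGI: total growth inhibition.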

Tested on: NCI-H322M lung
Test: NCI-60 cell line screen, 48 h

SMILES	TGI	GI50
CC(C1=CC=C2[C@@H]3CCC4CC(N(C)C)CC[C@]4(C)C3CC[C@]12C)N(C)C=O (some centres undefined)	> 100 µM	–
O=S(=O)(O)c1ccc(N=Nc2ccc(N=Nc3c(O)c(S(=O)(=O)O)cc4cc(S(=O)(=O)O)ccc34)cc2)cc1	> 100 µM	–
CC(C)=NNc1ncnc2c1ncn2C1OC(CO)C(O)C1O (centres undefined)	–	0.376 µM
C/C(CC(=O)Nc1ccc(C)c(C)c1)=N\NC(N)=S	> 100 µM	–
O=C(CC(Cl)(Cl)C(Cl)(Cl)Cl)c1ccccc1	26 µM	–
CCOC(=O)c1c(-c2ccccc2)oc(=O)c(Cc2cccc3cccnc23)c1-c1ccccc1	> 10 µM	–
Cc1c2nc3ccccc3sc-2cc(=O)c1C	> 100 µM	–
CCCCCc1c(C)[nH]c(/C=C2\N=C(c3ccc[nH]3)C=C2Oc2ccccc2)c1C	3.4 µM and 2.89 µM	0.0364 µM and 0.017 µM
Cc1cccc(NC2=C(Cl)C(=O)N(Cc3ccc(Cl)cc3)C2=O)c1	36.5 µM	10 µM
CNC(=S)NC(=S)N(C)C	> 100 µM	–
CCc1nc(N)nc(N)c1-c1ccc(Cc2ccccc2)c([N+](=O)[O-])c1	> 61.9 µM	–
CC(C)(C)OC(=O)NCC(c1c[nH]c2ccc(Br)cc12)c1c[nH]c2ccc(Br)cc12	20.7 µM	–
COc1ccc(CN2C(=O)C(Cl)=C(Nc3cccc(O)c3)C2=O)cc1	21.9 µM	7.56 µM
CN(C)c1ccc(/C=N/N=C2\C(=O)Nc3c(Cl)cc(Cl)cc32)cc1	> 100 µM	–
[N-]=[N+]=Nc1ccc2c(c1)Sc1ccccc1N2CCCCN1CCN(Cc2ccc(C(=O)c3ccccc3)cc2)CC1	> 92.1 µM	–
COc1cc(CCCl)c(CC2=NCCc3cc(OC)c(OC)cc32)cc1OC	> 100 µM	–
CCC1(O)C(=O)OCc2c1cc1n(c2=O)Cc2cc3ccc(CO)cc3nc2-1 (centres undefined)	36.1 µM	–
CSc1nc(=Nc2ccccc2)sn1-c1ccccc1	> 100 µM	–
Nc1nc(-c2ccccc2)cc(-c2ccccc2O)n1	> 100 µM	–
CCCCCCCCCCCC[C@H](O)[C@H]1CC[C@H]([C@H](O)CCCC[C@H](O)CCCCC[C@@H](O)CC2=C[C@H](C)OC2=O)O1	29.1 µM	14.8 µM
Cn1c(=O)c2c(ncn2Cc2ccc(O)c([N+](=O)[O-])c2)n(C)c1=O	> 100 µM	–
Oc1c(Cl)cc(Cl)c2ccc(Cn3cc(-c4cc(F)cc(F)c4)nn3)nc12	28.7 µM	15.3 µM
CC1(C(=O)O)CCC(C(=O)O)C(C)(C)O1 (centres undefined)	> 100 µM	–
COC1/C=C/C(C)C(OC)CC(O)/C=C/C(C)C(C(C)C(OC)C(C)CCC(=O)C(C)C(C/C=C/N(C)C=O)OC)OC(=O)/C=C/C=C(\C)CC(OC)CC2=CC(=O)O[C@@H](C(C)C(OC)C1)[C@H]2O (some centres undefined)	> 9 µM	–

SMILES	TGI	GI50
COc1ccc2c(=O)c(-c3cc4c(cc3OC)OCO4)coc2c1	> 100 µM	–
COc1ccc(-c2c(C#N)c(N)nc3c2COc2ccc(F)cc2-3)cc1OC	41.5 µM	15.7 µM
COc1ccc2[nH]c(C(O)(Cc3cccnc3)Cc3cccnc3)cc2c1	> 100 µM	–
O=C(NC1CCC(Br)CC1)C1CCCC(S(=O)(=O)NC2CCCCC2)C1 (centres undefined)	49.4 µM	15.8 µM
O=C1[C@H]2ON(c3ccccc3)C(c3ccc(Cl)cc3Cl)[C@H]2C(=O)N1c1ccc(Cc2ccc(N3C(=O)[C@@H]4ON(c5ccccc5)C(c5ccc(Cl)cc5Cl)[C@@H]4C3=O)cc2)cc1 (some centres undefined)	> 100 µM	–
CCCC(=O)c1ccc2c(ccc(=O)n2C)c1	> 100 µM	–
Nc1ccc2c(c1)Cc1ccccc1-2	> 100 µM	–
Cn1cc(C2=C(c3c4n(c5ccccc35)CCN(C(N)=S)C4)C(=O)NC2=O)c2ccccc21	> 25 µM	10.9 µM
COc1ccc(OC)c(NC(=O)c2c(Cl)c(Cl)c(Cl)c(Cl)c2-c2nc3ccccc3[nH]2)c1	> 100 µM	–
O=C1CCC(c2nc3cc(Cl)ccc3o2)C(=O)N1 (centres undefined)	> 100 µM	–
CC1=C[C@H](O)[C@@]2(C)[C@@H]([C@@H]1C)[C@H]1CC[C@@H]3[C@@]4(C)CC[C@H](O)C(C)(C)[C@@H]4CC[C@@]3(C)[C@]1(C)C[C@@H]2O	28.3 µM	–
O=c1oc2ccc(Cl)cc2cc1C1=CSC2=NCCN12	43 µM	–
CC(C)OP(=O)(c1ccccc1)c1ccc2c(c1)OCCOCCOCCOCCO2 (centres undefined)	> 100 µM	–
C=C1C/C(=C/C)C(=O)O[C@@H]2CCN3CC=C(COC(=O)[C@]1(C)O)[C@H]23	> 100 µM	–
CCOC(=O)Cn1nc2ccc(Nc3c(C)[n+]([O-])c4cc(F)c(OCC)cc4[n+]3[O-])cc2n1	> 100 µM	–
CCOc1ccc(NC(=O)/C(=N\N)C(C(=O)OC)c2nc3ccc(Cl)cc3[nH]c2=O)cc1 (centres undefined)	> 100 µM	–
O=C1CCC(C(=O)O)C2=C1CCCC2 (centres undefined)	> 100 µM	–
O=c1n(-c2ccccc2)c(=O)n2n1C1C=CC2CCCCCC1	> 100 µM	–
O=[N+]([O-])c1ccc(N=Nc2c(O)[nH]c3ccc(Br)cc23)cc1	37.1 µM	–
C=CCCC1CCCCC/C1=N\N(C)C (centres undefined)	> 100 µM	–
Cn1c(-c2c(N)n(Cc3ccc(C(F)(F)F)cc3)c3nc(C#N)c(C#N)nc23)nc2ccccc21	> 100 µM	30 µM
CCOC(=O)C1(C(=O)OCC)OC(=O)NC2=C1CCCC2	> 100 µM	–
Cc1cc(I)cc(CN(C)CCN2CCOCC2)c1O	> 100 µM	> 85.1 µM
COc1cc(NC(=O)c2ccc(C(F)(F)F)nc2Nc2cc(Cl)ccc2C)cc(OC)c1OC	76.4 µM	14.1 µM
